Laboratory results: PubChem BioAssay (NCI)
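Values below derive from 48-hour exposures of cells grown in 96-well plates, with endpoints linearly interpolated between the two concentrations bracketing the appropriate inhibition level. GI50 marks 50% less growth. At the TGI there is no net growth.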

Test system: NCI-H322M lung
Experiment: NCI anticancer screen, dose series, 48 h

Structure (SMILES) | TGI [µM] | GI50 [µM]
CC1=NN(c2cccc(Cl)c2)C2(SCC(=O)N2c2nc3ccccc3s2)/C1=C\c1ccccc1O (stereo not given) | > 100 | –
CCOP(=O)(OCC)C(c1ccc(F)cc1)N(C(=O)NC(F)(F)F)c1ccc(OC)cc1 (stereo not given) | > 100 | –
CO[C@H]1/C=C(/C)CCC[C@H](C)[C@H](O)[C@@H](C)C(=O)C(C)(C)[C@@H](O)CC(=O)O[C@@H]1/C(C)=C/c1csc(C)n1 | > 100 | 0.028
CC1(C)CCCC2OC2CCC(C)(C)C1=O (stereo not given) | > 100 | –
NC1=NCC(CN2CCOCC2)O1 (stereo not given) | > 100 | –
OCCCCCNCc1cc2cc3c(cc2c2cc(OCc4ccccc4)ccc12)OCO3 | 3.22 | 1.76
CN(C)c1ccc(S(=O)Nc2ccccc2)cc1 (stereo not given) | > 100 | –
CC(=O)OC1COC(n2ccc3cc(Br)c([N+](=O)[O-])cc32)C(OC(C)=O)C1OC(C)=O (stereo not given) | > 100 | –
CCOC(=O)CC(=O)ON(C)C(C)=O | > 100 | –
COc1ccc2c(c1)OCC1Cc3ccccc3OC21 (stereo not given) | > 100 | –
OCCc1ccsc1-c1sc(-c2cc(CCO)c(-c3sccc3CCO)s2)cc1CCO | 23.5 | –
c1ccc(COc2cccc3ccc[n+](Cc4ccccc4)c23)cc1 | 80.9 | –
Cn1cnc([N+](=O)[O-])c1Sc1nc2ccccc2[nH]1 | 61.5 | –
CC1(C)C2CCC(=O)C1CC2 (stereo not given) | > 100 | –
COc1cc(/C=C/c2cc(O)c(C(C)=O)c(O)c2)cc2c1O[C@]1(C)CC[C@@H](O)C(C)(C)[C@H]1C2 | 75 | 9.23
COP(=O)(/C=C/c1cc(C(=O)OCc2ccccc2)n(S(=O)(=O)c2ccccc2)c1)OC | > 100 | –
O=[N+]([O-])c1ccc(Oc2c(Cl)cc(S(=O)(=O)/N=C(\NO)Nc3ccc(Cl)cc3)cc2Cl)cc1 | 22.5 | –
CC1=NN(c2cccc(Cl)c2)C2(C1=C/C=C/c1ccccc1)C(Cl)C(=O)N2c1nc2ccccc2s1 (stereo not given) | > 100 | –
Cc1ccc(-c2[nH]c(=O)n(C3OC(CO)C(O)C(O)C3O)c(=O)c2C#N)cc1 (stereo not given) | > 100 | –
COc1ccc2c(C)cc(=O)oc2c1OC | > 100 | –
COc1ccc(NC(=O)CC(=O)N2N=C(N3c4ccccc4Sc4ccccc43)CC2c2ccccc2)cc1 (stereo not given) | > 100 | –
NS(=O)(=O)c1cc(Cl)c(NC(=S)NC(=O)Nc2ccc(Cl)c(Cl)c2)c(Cl)c1 | > 100 | –
O=C1NCC2(CCN(CCCC3(c4ccc(F)cc4)OCCO3)CC2)N1c1ccccc1 | > 100 | –
CC1OC(OC2C(OC(=O)[C@]34CCC(C)(C)C[C@H]3C3=CC[C@@H]5[C@@]6(C)CC[C@H](OC7OC(C(=O)O)C(O)C(O)C7O)C(C)(C)[C@@H]6CC[C@@]5(C)[C@]3(C)C[C@H]4O)OCC(O)C2O)C(O)C(OC2OCC(O)(CO)C2O)C1OC1OCC(O)C(O)C1O (stereo not given in full) | 10.7 | –
Cc1cc(I)cc(CN(C)CCCN2CCCCC2)c1O | > 100 | 41.9
N=Nc1c(OC(=O)Nc2cccc(Cl)c2)[nH]c2ccccc12 | 23.3 | –

Structure (SMILES) | TGI [µM] | GI50 [µM]
Cc1ccccc1S(=O)(=O)OC1NS(=O)(=O)c2ccccc21 (stereo not given) | > 100 | –
CCN1c2ccccc2C(C(SC)S(=O)(=O)c2ccc(C)cc2)c2c1[nH]c(=O)n(C)c2=O (stereo not given) | > 100 | –
COc1cc(NCc2ccc3oc(=O)c(-c4ccccc4)nc3c2)cc(OC)c1OC | > 10 | –
Cc1cc(C(=O)CCCCOc2ccc(C3=NCCO3)cc2)c(C)n1C | > 100 | –
CCN(CC)c1ccc(-c2cc(-c3cc(OC)c(OC)c(OC)c3)nc(N3CCOCC3)c2C#N)cc1 | > 100 | 12.1
CCN(CC)CCN(C(=Nc1ccccc1)N1CCOCC1)c1ccccc1 | > 100 | –
O=C(CCc1nnc2sc(-c3ccc(Cl)cc3Cl)nn12)c1nc2ncccc2[nH]1 | 12.4 | 2.94
O=c1c2sccc2n(CC2COc3ccccc3O2)c(=O)n1O (stereo not given) | > 100 | 28.4
CSC(=S)N(C)C | > 100 | –
CCNC(=O)Cc1nc2c(N)ncnc2n1C1OC(CO)C(O)C1O (stereo not given) | > 100 | –
N#CC(C#N)=CNC(N)=S | > 100 | –
Cc1ccc(S(=O)(=O)Nc2ccccc2C(=O)c2ccc(C)c(C)c2)cc1 | > 100 | –
CCN(CC)/C(SCc1ccccc1)=C(\C(Cl)=C(Cl)Cl)[N+](=O)[O-] | 50.2 | –
COc1cc2c3c(n(C)c(=O)c2cc1OC)-c1cc2c(cc1/C3=C\CCN)OCO2 | 4.03 | 0.498
COc1cccc2c(=O)oc(-c3ccc(C(C)(C)C)cc3)nc12 | > 100 | –
Cc1cc2c(cc1Cl)SC(N(N(C)C)S(=O)(=O)c1ccc(Cl)cc1)=NS2(=O)=O | > 100 | 33.4
C=C1NC(=O)C(C(C)CC)NC(=O)C2CSCC(NC(=O)CCC(=O)O)C(=O)NC(Cc3ccccc3)C(=O)NC(C)C(=O)NC(CC(C)CC)C(=O)NC(C(=O)NC(Cc3ccccc3)C(=O)N3CCCC3C(=O)N2)C(C)OC(=O)C(CO)NC(=O)C(C(O)COC)N(C)C(=O)C(C(C)C)NC(=O)C(CC(C)CC)NC1=O (stereo not given) | > 6 | 0.0346
COc1cc2c(c(OC)c1OC)-c1ccc(OC)c(=O)cc1C(NC(=O)c1ccc(N=[N+]=[N-])cc1)CC2 (stereo not given) | > 100 | –
CC(=O)[C@@]12O[C@@H]1CC1C3CCC4=CC(O)CCC4(C)C3CCC12C (stereo not given in full) | > 100 | > 100
COC(=O)C1=C(C)NC(C)=C(C(=O)OCCCN2CCC(c3ccccc3)(c3ccccc3)CC2)C1c1cccc([N+](=O)[O-])c1 (stereo not given) | 3.43 | –
O=C(CSc1ccc(Cl)cc1)Nc1ccc(-c2nc3ccccc3s2)c(Cl)c1 | 33.2 | 3.74
CC[C@H](Nc1ncnc2nc[nH]c12)c1oc2ccccc2c(=O)c1-c1cccc(F)c1 | > 100 | 28.2
CC(C)=Cc1cc(C(=O)Nc2ccc(Cl)c(Cl)c2)nc(N)n1 | > 100 | –
O=C1NCCN1/N=C/c1c(Cl)n(-c2ccccc2)c2ccccc12 | 64.8 | –
CCN(CCCN(CC)C(=O)Nc1c(C)cccc1C)C(=O)Nc1c(C)cccc1C | > 100 | –
CN1CCN(CCCn2c(=O)c3sc4ncccc4c3n3nnc(-c4ccccc4)c23)CC1 | 12.9 | 6.16

Structure (SMILES) | TGI [µM] | GI50 [µM]
C[Si](C)(C)C1(Sc2ccccc2)SCCCS1 | > 100 | –
C=C(Br)C(C)(Br)CCC(Br)C(C)(C)Cl (stereo not given) | 34.4 | –
CC(=N/N=C/c1ccccn1)/C(C)=N/N=C(C)/C(C)=N/N=C(C)/C(C)=N/N=C(C)/C(C)=N\N=C\c1ccccn1 | > 100 | –
COC1=CC(=O)C(C2CC(=O)c3c(O)cc(O)cc3O2)=CC1=O (stereo not given) | > 93.2 | –
COc1ccc(S(=O)(=O)NNS(C)(=O)=O)cc1 | > 100 | –
C[C@@H]1CCC2[C@@H](C)[C@@H](OCC(CO[C@H]3OC4O[C@@]5(C)CC[C@H]6[C@H](C)CCC([C@H]3C)[C@@]46OO5)OC(=O)CCC(=O)O)OC3O[C@@]4(C)CC[C@@H]1[C@]32OO4 (stereo not given in full) | 32.5 | 10.2
CC(=O)/C(=C\c1cccc([N+](=O)[O-])c1)C(=O)Nc1ccccc1C | > 100 | –
COc1cc(NS(C)(=O)=O)ccc1Nc1cc(C)[nH]c2ccc3nccc3c12 | > 100 | –
Cc1nc(N)c(N2CCN([N+](=O)[O-])CC2)c(=O)[nH]1 | > 100 | –
CCCCCCOc1ccc(C(=O)NOC)cc1 | > 100 | –
OC(c1nc2ccccc2[nH]1)C(O)C(O)C(O)c1nc2ccccc2[nH]1 (stereo not given) | > 100 | –
Cc1ccc2c(c1)C(=O)C1(Cc3ccccc3C1=O)C2 (stereo not given) | > 100 | –
CCOC(=O)NC(=O)c1cn(CCCO)c(=O)[nH]c1=O | > 100 | –
CCCCCCCCC/C=C1\CCC(CN2CCOCC2)C1=O (stereo not given) | 27.2 | –
COc1c(Cl)c(=O)oc2ccc(Cl)cc12 | > 100 | –
CC1CCC(C(=O)O)(C(Br)C(=O)O)CC1 (stereo not given) | > 100 | –
CN(C)C1(N(C)C)Oc2c(c(=O)n(C)c(=O)n2C)C(c2ccc(Br)cc2)C1(F)F (stereo not given) | > 100 | –
Cc1cc2c3c(nc4ccccc42)C(=O)c2ccccc2-c3n1 | 17.2 | –
COc1cccc2c1OC1(C=C2)Oc2ccccc2C(=O)N1C (stereo not given) | > 100 | –
COc1ccc(-c2nc(SCC(=O)N/N=C/c3ccc(N(C)C)cc3)[nH]c2-c2ccc(OC)cc2)cc1 | > 100 | –
CCOC(=O)c1ccc(NCC#CCN2CCOCC2)cc1 | > 100 | –
COc1cc2c3c(n(C)c(=O)c2cc1OC)-c1cc2c(cc1/C3=C\CCCN)OCO2 | 53.1 | 16.2
O=C(/C=C/c1ccc(Cl)cc1)c1ccc(Nc2ccnc3cc(Cl)ccc23)cc1 | > 100 | > 100
COc1ccc([C@H]2[C@@H](F)C(=O)N2c2cc(OC)c(OC)c(OC)c2)cc1F | > 100 | 1.63
CC(=O)OC1=CC(n2cc(F)c(=O)[nH]c2=O)OC(C)C1=O (stereo not given) | > 100 | –
